Measured values published in PubChem BioAssay AID504333 (National Center for Advancing Translational Sciences (NCATS), 2011).
In all, about 360,000 compounds went through this assay and about 16,000 (4.4%) were called active. This list was built around the results that the source calls inconclusive (neither active nor inactive); the mix of calls is not that of the screen. Calls come from the whole dose curve; as a rule, active = well fitted inhibition curve with a large enough effect; inconclusive = small, poorly fitted or top-dose-only effect; inactive = no such curve, though single readings can be large or run the other way. Potencies of inconclusive entries are doubtful fits and often do not repeat.

Target: Bromodomain adjacent to zinc finger domain protein 2B (Homo sapiens) (UniProt Q9UIF8)
Sequence of UniProt Q9UIF8 (Q9UIF8 whole entry, looked up, the tested form may be a part): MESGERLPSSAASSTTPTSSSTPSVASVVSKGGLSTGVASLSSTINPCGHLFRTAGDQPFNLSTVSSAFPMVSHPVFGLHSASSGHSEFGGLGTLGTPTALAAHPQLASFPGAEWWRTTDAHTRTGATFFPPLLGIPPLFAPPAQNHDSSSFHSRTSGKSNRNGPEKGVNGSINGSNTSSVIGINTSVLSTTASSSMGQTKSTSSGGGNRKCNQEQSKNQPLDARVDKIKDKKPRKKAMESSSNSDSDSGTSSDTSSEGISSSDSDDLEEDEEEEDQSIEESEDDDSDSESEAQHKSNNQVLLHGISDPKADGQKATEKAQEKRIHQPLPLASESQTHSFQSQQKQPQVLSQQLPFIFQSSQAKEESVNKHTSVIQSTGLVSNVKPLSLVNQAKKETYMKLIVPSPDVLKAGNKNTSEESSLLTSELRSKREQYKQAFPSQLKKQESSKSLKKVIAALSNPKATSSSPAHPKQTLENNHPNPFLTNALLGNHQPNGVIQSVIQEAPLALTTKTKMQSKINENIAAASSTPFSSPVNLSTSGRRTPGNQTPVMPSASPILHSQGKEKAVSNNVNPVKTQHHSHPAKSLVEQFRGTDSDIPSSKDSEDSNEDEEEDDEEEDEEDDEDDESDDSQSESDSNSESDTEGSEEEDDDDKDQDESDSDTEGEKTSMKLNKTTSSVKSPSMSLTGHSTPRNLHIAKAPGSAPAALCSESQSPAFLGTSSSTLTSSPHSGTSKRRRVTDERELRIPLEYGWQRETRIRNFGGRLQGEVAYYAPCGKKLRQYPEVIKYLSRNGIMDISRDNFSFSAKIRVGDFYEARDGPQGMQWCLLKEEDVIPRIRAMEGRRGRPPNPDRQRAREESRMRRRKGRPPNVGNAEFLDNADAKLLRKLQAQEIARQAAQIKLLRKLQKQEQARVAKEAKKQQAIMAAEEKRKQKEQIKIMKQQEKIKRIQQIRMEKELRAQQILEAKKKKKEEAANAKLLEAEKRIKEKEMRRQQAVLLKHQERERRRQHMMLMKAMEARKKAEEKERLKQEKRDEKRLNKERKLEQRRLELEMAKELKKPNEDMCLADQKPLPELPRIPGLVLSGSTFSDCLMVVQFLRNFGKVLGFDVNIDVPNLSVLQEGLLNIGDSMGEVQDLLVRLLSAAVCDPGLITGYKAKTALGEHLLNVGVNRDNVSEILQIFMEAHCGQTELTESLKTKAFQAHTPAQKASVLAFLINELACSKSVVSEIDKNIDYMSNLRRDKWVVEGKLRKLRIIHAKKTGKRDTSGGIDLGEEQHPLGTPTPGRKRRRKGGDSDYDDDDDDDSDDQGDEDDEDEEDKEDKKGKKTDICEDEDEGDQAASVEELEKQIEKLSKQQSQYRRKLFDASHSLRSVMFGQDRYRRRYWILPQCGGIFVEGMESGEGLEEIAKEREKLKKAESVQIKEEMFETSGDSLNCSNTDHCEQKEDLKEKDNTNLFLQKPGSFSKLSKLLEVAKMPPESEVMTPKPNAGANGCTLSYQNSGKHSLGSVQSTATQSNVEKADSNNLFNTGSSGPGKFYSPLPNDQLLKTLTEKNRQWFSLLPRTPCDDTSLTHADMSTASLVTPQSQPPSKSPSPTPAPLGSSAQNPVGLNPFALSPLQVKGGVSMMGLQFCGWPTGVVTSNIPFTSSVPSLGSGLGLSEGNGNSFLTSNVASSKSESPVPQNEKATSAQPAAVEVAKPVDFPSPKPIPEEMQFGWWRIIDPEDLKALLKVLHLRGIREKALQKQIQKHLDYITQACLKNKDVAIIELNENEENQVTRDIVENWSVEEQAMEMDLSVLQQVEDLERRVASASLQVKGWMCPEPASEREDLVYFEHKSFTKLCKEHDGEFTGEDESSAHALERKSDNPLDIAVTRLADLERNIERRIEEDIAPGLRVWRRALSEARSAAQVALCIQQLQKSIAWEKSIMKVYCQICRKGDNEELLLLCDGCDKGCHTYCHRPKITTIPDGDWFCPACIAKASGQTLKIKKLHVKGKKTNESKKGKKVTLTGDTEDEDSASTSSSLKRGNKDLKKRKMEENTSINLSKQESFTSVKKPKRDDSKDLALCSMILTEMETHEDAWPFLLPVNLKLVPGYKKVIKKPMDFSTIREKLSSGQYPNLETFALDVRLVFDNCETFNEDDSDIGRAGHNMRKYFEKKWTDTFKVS
Assay: qHTS Assay for Inhibitors of BAZ2B; note: nearly all actives have a fitted effect of over 60% in size
Conditions: AlphaScreen BAZ2B-H3K14Ac peptide displacement; series mostly up to 114 µM
Procedure, shortened: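 Multi-concentration screen (max 110 uM) measuring displacement of acetylated histone H3 peptide from BAZ2B by AlphaScreen, using 50 nM protein, 50 nM peptide and 10 ug/mL streptavidin donor plus Ni-chelate acceptor beads.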
Potency is the fitted concentration of half-maximal effect; tags give direction and shape of the fitted curve.

Structure (SMILES) | Potency
CC1(C)Cc2ccccc2-c2n[nH]c(=S)n21 | inactive
N#CC1=C(N)Oc2c(ccc3ccccc23)C1c1ccsc1 (stereo not given) | inactive
O=C(COc1cccc2ccccc12)N/N=C/c1ccco1 | inconclusive: 79.4 µM [inhibitor, single point]
Cc1cc(C)c(S(=O)(=O)NCCc2sc3nc(-c4ccc(F)cc4)nn3c2C)c(C)c1 | inactive
CCCSC1=N/C(=C\c2ccc([N+](=O)[O-])o2)C(=O)S1 | active: 12.6 µM
Cc1nn(-c2ccccc2)c(C)c1C(=O)Nc1nnc(-c2ccco2)o1 | inconclusive: 89.1 µM [inhibitor, single point]
O=C(O)CSc1cc(C(=O)c2cc(F)ccc2O)cn2c(=O)c3c(-c4ccccc4)csc3nc12 | active: 56.2 µM
Oc1ccc2ccccc2c1C=Nc1ccccc1Br | inconclusive: 89.1 µM [inhibitor, single point]
COc1ccc(-n2c(CN3CCC(C)CC3)nc3ccc([N+](=O)[O-])cc3c2=O)c(OC)c1 | inconclusive: 70.8 µM [inhibitor, single point]
COc1cc2c(cc1OC)CN(CC(=O)Nc1ccc(Cl)cc1Cl)CC2 | inconclusive: 70.8 µM [inhibitor, single point]
COC(=O)c1cnc(N2CCN(c3ccc(OC)cc3)CC2)c2ccccc12 | active: 22.4 µM
COc1ccc(NC(=S)N/N=C/c2cccn2Cc2ccc(F)cc2)cc1 | inconclusive: 79.4 µM [inhibitor, single point]
Cc1ccccc1NS(=O)(=O)c1ccc2[nH]cc(C(=O)NCCc3ccccc3)c(=O)c2c1 | inconclusive: 50.1 µM [inhibitor, partial curve]
COc1ccc(/C=N/NC(=O)CCc2ccccc2)cc1O | inconclusive: 100 µM [inhibitor, single point]
COc1ccc(C)cc1-n1c(N)c(C#N)c(C#N)c1-c1ccc(OC)c(OC)c1OC | inconclusive: 22.4 µM [inhibitor, full curve, poor fit]
COC/C=C/C1=CC2=CC(=O)C(C)(OC(=O)CCC(=O)OC)C(=O)C2=CO1 (stereo not given) | active: 50.1 µM
NC(=O)c1ccc(-n2nnnc2Oc2ccccc2C(=O)N2CCOCC2)cc1 | inactive
COc1ccc(N2CCN(C(=O)CNC(=O)c3ccc4ccccc4c3)CC2)cc1 | inactive
CCOc1ccc(S(=O)(=O)NCCSCc2ccco2)cc1 | inconclusive: 89.1 µM [inhibitor, single point]
O=C(/C=C/c1ccc(OC(F)F)cc1)OCC(=O)N1CCc2ccccc21 | inactive
Cc1ccc(C(=O)N2C3=C(CCCC3)C(=O)NC23CCCCC3)cc1 | inconclusive: 3.55 µM [inhibitor, single point]
CCCCCCOC(=O)c1ccccc1NC(=O)/C=C/C(=O)O | inconclusive: 100 µM [inhibitor, single point]
CCOc1ccc(S(=O)(=O)NCCCn2ccnc2)cc1 | inconclusive: 56.2 µM [inhibitor, partial curve]
CCOc1ccccc1C1NC(=O)NC(C)=C1C(=O)OCc1ccccc1 (stereo not given) | inactive
CCOc1ccsc1C(=O)O | inactive

Structure (SMILES) | Potency
O=C(O)Cc1sc(Nc2cccc3ccccc23)nc1-c1ccc(Cl)cc1 | inconclusive: 79.4 µM [inhibitor, single point]
O=C(Nc1nc2ccccc2s1)C1CC(=O)N(c2ccc(F)cc2)C1 (stereo not given) | inactive
Cc1cccc(C(=O)N/N=C/c2ccoc2)c1 | active: 50.1 µM
COc1ccccc1N1CCN(C2CCN(C(=O)COc3ccccc3)CC2)CC1 | active: 50.1 µM
N#Cc1ccc(C(=O)Nc2nnc(-c3ccccn3)o2)cc1 | active: 8.91 µM
COC(=O)C(CCSC)NC(=O)c1cc2c(n(-c3ccc(C)cc3)c1=O)CCCC2=O (stereo not given) | active: 50.1 µM
COc1ccc(N(C(C)C(=O)N/N=C/c2ccc(OC(C)C)cc2)S(C)(=O)=O)cc1 (stereo not given) | inconclusive: 89.1 µM [inhibitor, single point]
NC(=S)NNc1ccnc2cc(Cl)ccc12 | active: 50.1 µM
CC(C)C(Sc1nc(-c2ccccc2)cc(-c2ccccc2)c1C#N)C(=O)O (stereo not given) | inconclusive: 17.8 µM [inhibitor, full curve]
COc1ccc(-n2cc(-c3ccccc3)c3c(=O)[nH]cnc32)cc1 | inconclusive: 44.7 µM [inhibitor, partial curve]
Cc1nc(N=Nc2ccc(O)cc2)n[nH]1 | inconclusive: 100 µM [inhibitor, single point]
O=C(Cc1ccccc1[N+](=O)[O-])NCc1ccc(Cl)cc1 | inactive
COc1ccc(-c2cc(=O)oc3cc(OCC(C)=O)ccc23)cc1 | inactive
Cc1onc(-c2ccccc2Cl)c1C(=O)NNC(=O)c1cccc(F)c1 | inactive
CCOc1ccc(S(=O)(=O)Nc2cccc(C(=O)N3CCN(c4ccc(OC)cc4)CC3)c2)cc1 | inconclusive: 31.6 µM [inhibitor, full curve]
COc1ccc2[nH]c3c(c2c1)[C@@H]1CCN2C(=O)CCC[C@H](C3)[C@H]12 | inconclusive: 100 µM [inhibitor, single point]
Oc1cc(O)cc(/C=C/c2ccc(O)c(O)c2)c1 | inconclusive: 50.1 µM [inhibitor, partial curve]
COc1cccc(NC(=O)CCNC(=O)Cn2cnc3ccccc3c2=O)c1 | inactive
CC(=O)c1cccc(NC(=O)c2cccc(NC(=O)c3ccco3)c2)c1 | active: 79.4 µM
CC(=O)Nc1ccc(NS(=O)(=O)c2ccc(CN3C(=O)c4cccnc4C3=O)cc2)cc1 | active: 79.4 µM
COc1ccc(-c2csc(NC(=O)c3ccco3)n2)cc1 | inconclusive: 56.2 µM [inhibitor, partial curve]
Cc1cc(C)c(C(=O)CSc2n[nH]c(-c3ccncc3)n2)c(C)c1 | inactive
CCCOc1ccc(Cc2nn[nH]n2)cc1 | inactive
COc1cc(OC)c(NC(=O)Nc2ccc3c(c2)N(C)C(=O)c2ccccc2S3)cc1Cl | inactive
Cc1cc(NC(=NC2CC2)c2ccccc2)n(-c2ccccc2)n1 | inactive
